Measured values published in PubChem BioAssay AID1347165 (National Center for Advancing Translational Sciences (NCATS), 2019).
In all, about 220,000 compounds went through this assay and about 5,700 (2.6%) were called active. This list was built around the results that the source calls inconclusive (neither active nor inactive); the mix of calls is not that of the screen. Calls follow the shape of the dose curve; as a rule, active = well fitted inhibition curve with a large enough effect; inconclusive = small, poorly fitted or top-dose-only effect; inactive = no such curve, though single readings can be large or run the other way. Potencies of inconclusive entries are doubtful fits and often do not repeat.

target: Lysine-specific demethylase 5B (Homo sapiens) (UniProt Q9UGL1); assay: Primary screen for KDM5B Histone Demethylases FDH-coupled qHTS; settings: FDH-coupled NADH fluorescence (FDH is formaldehyde dehydrogenase); activity change, negative = inhibition: at 57.7 µM (top of the series) unless noted; also: nearly all actives have a fitted effect of over 70% in size; as to activity change, negative = inhibition: 0% is about no effect
UniProt Q9UGL1, sequence (Q9UGL1 whole entry, looked up, the tested form may be a part): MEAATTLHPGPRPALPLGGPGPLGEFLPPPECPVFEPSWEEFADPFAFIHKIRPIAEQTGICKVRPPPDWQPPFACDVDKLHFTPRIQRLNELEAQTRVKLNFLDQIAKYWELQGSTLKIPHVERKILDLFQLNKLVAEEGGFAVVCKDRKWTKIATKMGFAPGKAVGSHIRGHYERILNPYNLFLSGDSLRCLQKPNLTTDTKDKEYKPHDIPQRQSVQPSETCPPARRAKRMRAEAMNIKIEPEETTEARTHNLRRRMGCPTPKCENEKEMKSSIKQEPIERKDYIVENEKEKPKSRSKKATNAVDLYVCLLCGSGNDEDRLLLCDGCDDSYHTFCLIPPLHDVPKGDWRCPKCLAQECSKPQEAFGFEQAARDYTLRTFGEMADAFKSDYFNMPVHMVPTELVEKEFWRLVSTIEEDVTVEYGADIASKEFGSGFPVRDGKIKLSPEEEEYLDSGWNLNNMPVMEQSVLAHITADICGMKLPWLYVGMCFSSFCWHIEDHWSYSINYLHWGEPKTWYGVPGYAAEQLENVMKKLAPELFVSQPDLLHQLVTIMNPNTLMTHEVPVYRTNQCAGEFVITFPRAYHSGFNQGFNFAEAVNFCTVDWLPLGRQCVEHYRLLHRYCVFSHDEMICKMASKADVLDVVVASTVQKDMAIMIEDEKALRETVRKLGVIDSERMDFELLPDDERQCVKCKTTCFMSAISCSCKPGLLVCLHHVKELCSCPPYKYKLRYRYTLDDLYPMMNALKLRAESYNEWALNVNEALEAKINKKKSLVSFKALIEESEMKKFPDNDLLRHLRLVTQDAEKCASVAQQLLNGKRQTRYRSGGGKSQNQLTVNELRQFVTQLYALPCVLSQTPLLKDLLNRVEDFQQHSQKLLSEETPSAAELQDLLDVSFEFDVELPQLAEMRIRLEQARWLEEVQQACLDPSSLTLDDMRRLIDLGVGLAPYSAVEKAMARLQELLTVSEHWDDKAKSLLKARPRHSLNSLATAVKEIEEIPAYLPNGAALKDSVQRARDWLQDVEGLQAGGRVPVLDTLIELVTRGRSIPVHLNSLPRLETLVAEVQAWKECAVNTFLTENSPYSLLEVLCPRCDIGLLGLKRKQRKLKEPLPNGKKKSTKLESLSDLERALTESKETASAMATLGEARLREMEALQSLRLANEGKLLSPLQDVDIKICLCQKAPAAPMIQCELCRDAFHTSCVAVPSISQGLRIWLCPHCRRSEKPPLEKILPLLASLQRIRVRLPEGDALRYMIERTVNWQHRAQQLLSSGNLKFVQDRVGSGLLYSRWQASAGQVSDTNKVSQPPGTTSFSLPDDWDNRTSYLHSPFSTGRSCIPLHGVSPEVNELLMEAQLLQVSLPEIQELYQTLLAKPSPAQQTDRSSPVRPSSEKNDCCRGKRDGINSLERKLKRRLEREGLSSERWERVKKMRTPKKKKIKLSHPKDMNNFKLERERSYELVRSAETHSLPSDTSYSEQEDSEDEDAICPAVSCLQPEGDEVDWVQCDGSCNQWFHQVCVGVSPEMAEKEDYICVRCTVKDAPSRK
How it was run: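 Inhibition is measured as reduced NADH fluorescence generation from FDH coupling to formaldehyde release. Truncated KDM5BΔAP at 200 nM final acts on H3K4me3 peptide (12.5 µM in substrate mix) in pH 7.5 HEPES buffer with Tween-20, 30 min, room temperature.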
Potency is read from the fitted curve at half-maximal effect; tags tell the direction and shape of the fitted curve.

Row | SMILES | Potency | activity change, negative = inhibition
1 | CCCSc1oc(-c2ccco2)nc1S(=O)(=O)c1ccc(Br)cc1 | inconclusive: 25.1 µM [inhibitor, partial curve, poor fit] | –
2 | N#Cc1cccc(CN2CCC3(CC2)CC(Cc2nc(C4CC4)no2)CCO3)c1 (stereo not given) | inactive | –
3 | N#Cc1ccc(C(=O)NC2CCN(c3cc(-c4ccc(Cl)cc4)[nH]n3)C2)cc1 (stereo not given) | inconclusive: 2.51 µM [inhibitor, partial curve, poor fit] | –
4 | Cc1ccc(S(=O)(=O)n2nc(-c3ccc(Cl)cc3)nc2NCc2ccccc2)cc1 | inconclusive: 5.62 µM [inhibitor, partial curve, poor fit] | –
5 | CCNc1c(NC(=O)Cc2ccc(F)cc2)c(=O)oc2ccccc12 | inactive | –
6 | O=C(O)Cn1c(-c2cccs2)cc2cc(Cl)ccc21 | inconclusive: 35.5 µM [inhibitor, partial curve, poor fit] | –
7 | O=C(NCc1cccc(F)c1)N1CCc2nc3cc(-c4ccccc4)[nH]n3c(=O)c2C1 | active: 12.6 µM | –
8 | O=C(Nc1cccc(C(F)(F)F)c1)c1cc(-c2ccc(Cl)s2)nc2ccccc12 | – | inconclusive: -36.7% [inhibitor]
9 | CC(NC(=O)C1(C#N)CCCC1)C12CC3CC(CC(C3)C1)C2 (stereo not given) | inactive | –
10 | COc1ccc(CCNC(=O)c2c(C)noc2-c2ccc(OC(F)(F)F)cc2)cc1 | inactive | –
11 | CCOc1ccc(NC2SC(=O)N(Cc3ccccc3)C2=O)cc1 (stereo not given) | inconclusive: 17.8 µM [inhibitor, single point] | –
12 | COc1ccc(Nc2cc3c(cn2)CN(CCc2ccccc2)CCN3)cc1OC | inconclusive: 39.8 µM [inhibitor, partial curve, poor fit] | –
13 | COC(=O)CNC(=O)c1ccc(C)cc1C | inactive | –
14 | COc1cccc2c1cc1c(=O)n(CC(=O)N3CCN(c4cccc(C(F)(F)F)c4)CC3)nc(C)n12 | inconclusive: 17.8 µM [inhibitor, partial curve, poor fit] | –
15 | Cc1ccc(-c2noc(CCCC(=O)N3CCc4nc5cc[nH]n5c(=O)c4C3)n2)cc1 | inconclusive: 28.2 µM [inhibitor, partial curve, poor fit] | –
16 | CCCCN(CC)C(=O)CSc1nc2n[nH]c(C)c2c(=N)n1-c1cccc(C)c1 | inconclusive: 39.8 µM [inhibitor, single point] | –
17 | CCC(=O)Oc1ccc2cc(-c3nc(-c4ccccc4C)no3)c(=O)oc2c1 | inconclusive: 17.8 µM [inhibitor, partial curve, poor fit] | –
18 | O=S(c1cc(Cl)cc(Cl)c1O)c1cc(Cl)cc(Cl)c1O | inconclusive: 28.2 µM [inhibitor, partial curve, poor fit] | –
19 | Cc1cnc(C2CC2)n1CCN | inconclusive: 15.8 µM [inhibitor, single point] | –
20 | COc1ccc(Nc2nc(N)c(C(=O)c3ccc(OC)c(OC)c3)s2)cc1 | inconclusive: 22.4 µM [inhibitor, single point] | –
21 | CCn1c2c(c(=O)n1Cc1ccccc1)CCN(Cc1cncc(OC)c1)C2 | inconclusive: 35.5 µM [inhibitor, partial curve, poor fit] | –
22 | CC(C)CNc1nc(C(=O)Nc2nccs2)cs1 | inconclusive: 25.1 µM [inhibitor, partial curve, poor fit] | –

Row | SMILES | Potency | activity change, negative = inhibition
23 | O=S(=O)(NCCc1csc2nc(-c3ccccc3)nn12)c1cccs1 | inconclusive: 14.1 µM [inhibitor, partial curve, poor fit] | –
24 | CN(CC(=O)N(C)C1CCS(=O)(=O)C1)c1ccc2ccccc2c1 (stereo not given) | inconclusive: 25.1 µM [inhibitor, partial curve, poor fit] | –
25 | CC(C)NC(=O)c1nc(-c2ccc(COc3ccc4c(c3)OCO4)cc2)no1 | inactive | –
26 | O=C(NCc1ccccc1)c1nc(S(=O)(=O)Cc2ccc(F)cc2)ncc1Cl | inconclusive: 35.5 µM [inhibitor, single point] | –
27 | COC(=O)c1cccc(S(=O)(=O)NCc2ccc(N3CCCC3)nc2)c1 | inactive | –
28 | Cc1ccc(/C=C/c2onc(C)c2S(=O)(=O)N2CCC(C(=O)N3CCN(c4cccc(C)c4)C(C)C3)CC2)cc1 (stereo not given) | inconclusive: 35.5 µM [inhibitor, single point] | –
29 | O=C(O)c1ccc(Cn2cnc3cccnc32)cc1 | inconclusive: 25.1 µM [inhibitor, partial curve, poor fit] | –
30 | CC(=O)Oc1ccccc1C(=O)Nc1ccc2c(c1)CN(CCc1ccc(F)cc1)C(=O)C(C)O2 (stereo not given) | inconclusive: 35.5 µM [inhibitor, single point] | –
31 | CCN1CCN(c2oc(-c3ccccc3F)nc2C#N)CC1 | inactive | –
32 | CC1CCCN(S(=O)(=O)c2ccc(-c3nc(C#N)c(NCCc4ccccc4)o3)cc2)C1 (stereo not given) | inconclusive: 25.1 µM [inhibitor, partial curve, poor fit] | –
33 | CN1CCC(C(=O)N2Cc3ccccc3CC3(CCN(Cc4ccncc4)C3)C2)CC1 (stereo not given) | inconclusive: 35.5 µM [inhibitor, full curve] | –
34 | COc1ccc(S(=O)(=O)c2cnc3cc(OC)c(OC)cc3c2N2CCCC(C)C2)cc1 (stereo not given) | inconclusive: 31.6 µM [inhibitor, single point] | –
35 | Nc1nccnc1C(=O)NCC#Cc1cccc(C(F)(F)F)c1 | inconclusive: 20 µM [inhibitor, partial curve, poor fit] | –
36 | COCC(=O)NC[C@H]1CCN(Cc2ccc(C#N)cc2)C[C@H]1N(C)C | active: 17.8 µM | –
37 | O=C(c1cc(-c2ccccc2)n[nH]1)N1CCc2c(nc3cc[nH]n3c2=O)C1 | active: 22.4 µM | –
38 | Cc1[nH]c(-c2ccccc2)nc1C(=O)O | inconclusive: 28.2 µM [inhibitor, single point] | –
39 | O=[S+]([O-])(c1ccc(Br)cc1)c1nnn2c1nc(NCc1ccc(F)cc1)c1ccccc12 | inactive | –
40 | CCOc1ccc(CNC(=O)C2CCN(c3nc4c(C)cc(C)cc4s3)CC2)cc1 | inactive | –
41 | CCN1c2cc(C(=O)Nc3ccc(C)cc3)ccc2C(=O)N2CCCCC21 (stereo not given) | inconclusive: 28.2 µM [inhibitor, partial curve, poor fit] | –
42 | Cc1ccccc1CN1C(=O)c2ccccc2Sc2ccc(C(=O)NC3CCCCC3)cc21 | – | inconclusive: -30% [inhibitor]
43 | COCC1CN(C2CCC2)CC12CCN(C(=O)C1CC=CC1)CC2 (stereo not given) | inconclusive: 10 µM [inhibitor, partial curve] | –
44 | Cc1ccc(OCc2nc(-c3ccc(C(=O)NCCc4ccc(Cl)cc4)cc3)oc2C)cc1 | inconclusive: 2.82 µM [inhibitor, full curve, poor fit] | –

Row | SMILES | Potency | activity change, negative = inhibition
45 | O=C(NCc1ccc(C(=O)N2CCCCC2)cc1)c1ccc(C(F)(F)F)cc1 | inactive | –
46 | O=C(Cc1c[nH]c2ccccc12)Nc1nc2ccccc2s1 | inactive | –
47 | CS(=O)(=O)N[C@@H]1C[C@H](Cn2cc(C3CC3)nn2)[C@@H](O)[C@H]1O | inconclusive: 14.1 µM [inhibitor, partial curve, poor fit] | –
48 | COc1ccc(C2CC(c3cccc(NS(C)(=O)=O)c3)=NN2C(=O)c2cccs2)cc1OC (stereo not given) | inconclusive: 39.8 µM [inhibitor, single point] | –
49 | Cc1cc(/C=N/NC(=O)c2ccc(O)cc2)c(C)n1CC(C)C | inconclusive: 39.8 µM [inhibitor, single point] | –
50 | COc1ccccc1NC(=O)CSc1nc(O)c(C/C=C/c2ccccc2)c(=O)[nH]1 | inconclusive: 14.1 µM [inhibitor, partial curve, poor fit] | –
51 | COc1cccc(-c2cc3c(=O)n(CCNC(=O)C(C)Oc4ccccc4)ccn3n2)c1 (stereo not given) | inconclusive: 28.2 µM [inhibitor, single point] | –
52 | CCc1nnc(NC(=O)CSc2nccn2Cc2ccc(C)cc2)s1 | inactive | –
53 | O=C(NCc1ccc(Cl)cc1)c1ccn2nccc2c1 | active: 35.5 µM | –
54 | CO[C@@H]1CCOC[C@H]1NS(=O)(=O)c1ccc(S(C)(=O)=O)cc1 | inconclusive: 12.6 µM [inhibitor, partial curve] | –
55 | O=C(C[C@H]1NC(=O)c2ccccc2NC1=O)Nc1nc(-c2ccc3c(c2)OCO3)cs1 | inactive | –
56 | O=C(c1ccc2c(c1)OCO2)N1CCn2c(nnc2-c2ccccc2)C1 | inactive | –
57 | COc1ccc(Cn2c(=O)n(-c3ccc(F)c(Cl)c3)c(=O)c3c2c2cc(OC)ccc2n3C)cc1 | inconclusive: 1.41 µM [inhibitor, partial curve, poor fit] | –
58 | Cc1ccc(C(=O)n2nc(C)c(S(=O)(=O)N3CCCCCC3)c2C)cc1C | inactive | –
59 | N#Cc1cccc(CN[C@H]2CO[C@H]3[C@@H]2OC[C@H]3OC(=O)Nc2ccc(Oc3ccccc3)cc2)c1 | inactive | –
60 | Cc1cc(N2CCN(C)CC2)nc2ccc(NC(=O)c3ccc(C(C)(C)C)cc3)cc12 | inconclusive: 22.4 µM [inhibitor, single point] | –
61 | O=C(NNC1=Nc2ccccc2SC1)c1ccc(F)cc1 | inconclusive: 22.4 µM [inhibitor, single point] | –
62 | O=C(Nc1cccc(C(F)(F)F)c1)N[C@H]1CO[C@H]2[C@@H]1OC[C@@H]2n1nnnc1Oc1ccc(-n2ccnc2)cc1 | inactive | –
63 | CCN(CC)S(=O)(=O)c1ccc(NC(=O)c2cc3ccc4cccnc4c3[nH]2)cc1 | inconclusive: 17.8 µM [inhibitor, single point] | –
64 | Cc1sc(NC(=O)C2CCC2)c(C#N)c1C | inactive | –
65 | Cn1cnc2cc(-c3ccc(N4CCOCC4)cc3)cc(C(=O)NCc3cccnc3)c21 | inconclusive: 44.7 µM [inhibitor, partial curve, poor fit] | –
